Measured values published in PubChem BioAssay AID485281 (National Center for Advancing Translational Sciences (NCATS), 2010).
About 260 (0.074%) of roughly 350,000 compounds were called active. The shares of active, inactive and inconclusive entries below differ from those in the screen. Calls follow the shape of the dose curve; as a rule, active = well fitted inhibition curve with a large enough effect; inconclusive = small, poorly fitted or top-dose-only effect; inactive = no such curve, though single readings can be large or run the other way. Potencies beside an inconclusive call are fits to weak or partial responses and may not hold up.

Molecular target: Ferritin light chain (Equus caballus) (UniProt P02791)
Sequence of UniProt P02791 (P02791 whole entry, looked up): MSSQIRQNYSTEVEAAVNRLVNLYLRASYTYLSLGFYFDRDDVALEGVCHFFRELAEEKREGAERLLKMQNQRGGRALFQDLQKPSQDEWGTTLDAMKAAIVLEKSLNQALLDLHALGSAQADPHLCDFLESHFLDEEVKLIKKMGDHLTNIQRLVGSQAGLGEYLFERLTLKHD
Assay: qHTS Assay for Identification of Novel General Anesthetics; also: nearly all actives have a fitted effect of over 20% in size
Settings: apoferritin/1-aminoanthracene competitive binding, fluorescence; activity change, negative = displacement: at 77.5 µM (top of the series)
Summary of the method: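 Horse-spleen apoferritin (10 uM) was mixed with 50% saturated 1-aminoanthracene in PBS, exposed to compounds for 10 min at room temperature, and read for fluorescence (ex 380 nm, em 535 nm). Competitive displacement was fitted with a four-parameter Hill equation.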
% is scaled to controls: 0 for no effect and ±100 for the full control effect; potency is read from the fitted curve at half-maximal effect; tags tell the direction and shape of the fitted curve.

| SMILES | Potency | activity change, negative = displacement |
| --- | --- | --- |
| COc1ccccc1C(=O)Nc1cccc2cccnc12 | inactive | – |
| COC(=O)c1cccc(-n2nnnc2SCC(=O)Nc2nc3c(s2)CCCC3)c1 | inconclusive: 22.4 µM [inhibitor, partial curve, poor fit] | – |
| CCOC(=O)N1CCN(c2c(-c3ccc(C(C)C)cc3)c(=O)c2=O)CC1 | inconclusive: 31.6 µM [inhibitor, partial curve] | – |
| COc1ccc(NC(=O)c2cc3c(=O)n(Cc4cccnc4)ccc3nc2C)cc1Cl | inconclusive: 10 µM [inhibitor, full curve] | – |
| CCCCn1c(/N=C/c2ccccc2NS(=O)(=O)c2ccc(C)cc2)nc2ccccc21 | inconclusive: 35.5 µM [inhibitor, partial curve] | – |
| COc1cc([N+](=O)[O-])cc(/C=N/NC(=O)CSc2ccccn2)c1O | inactive | – |
| COc1cc(-c2nnc(SCC(=O)Oc3ccccc3Cl)o2)cc(OC)c1OC | inactive | – |
| COc1ccc(N/C=C/C(=O)c2cc(OC)c(OC)c(OC)c2)cc1 | inconclusive: 28.2 µM [inhibitor, single point] | – |
| CCOCN(C(=O)Cn1cnc2cc(C)c(C)cc21)c1c(C)cccc1CC | inconclusive: 50.1 µM [inhibitor, single point] | – |
| OC(CNCc1ccc(-c2ccccc2)cc1)c1ccccc1 (stereo not drawn) | inconclusive: 14.1 µM [inhibitor, partial curve] | – |
| Cc1cccc(Oc2coc3cc(OCC(=O)NC4CCCCC4)ccc3c2=O)c1 | inconclusive: 10 µM [inhibitor, partial curve] | – |
| COc1cccc(C(=O)OCC(=O)c2ccc(Br)s2)c1 | inconclusive: 20 µM [inhibitor, partial curve] | – |
| Oc1ccc(CN2CCC(Cc3ccccc3)CC2)c2cccnc12 | inactive | – |
| CCn1nc(C(=O)OCC(=O)N2c3ccccc3CC2C)c2ccccc2c1=O (stereo not drawn) | inconclusive: 31.6 µM [inhibitor, partial curve] | – |
| CN(C)/C=C(\C#N)C(=O)Nc1ccc(F)c(Cl)c1 | inactive | – |
| CC(=O)c1ccc(-c2cccc(C3C4C=CCCC4(C)C(=O)N3Cc3ccccc3)c2)cc1 (stereo not drawn) | inconclusive: 17.8 µM [inhibitor, partial curve] | – |
| COc1ccccc1N1CCN(S(=O)(=O)CCNC(=O)C23CC4CC(CC(C4)C2)C3)CC1 | – | inconclusive: -27.5% [inhibitor] |
| CCCc1cc(=O)oc2cc(C)c(CN3CCCC3)c(O)c12 | inconclusive: 28.2 µM [inhibitor, single point] | – |
| CCN(CC)c1ccc(NC(=O)C2CCCC2)cc1 | inconclusive: 35.5 µM [inhibitor, partial curve] | – |
| Cc1ccc(C(=O)CC(=O)c2cccc(F)c2)c(O)c1 | inconclusive: 25.1 µM [inhibitor, partial curve] | – |
| O=C(N/N=C/c1ccco1)c1cccc(S(=O)(=O)Nc2ccccc2Cl)c1 | inconclusive: 56.2 µM [inhibitor, single point] | – |
| O=[N+]([O-])c1cc(C(F)(F)F)ccc1NCCc1c[nH]c2ccc(O)cc12 | inconclusive: 39.8 µM [inhibitor, partial curve] | – |

| SMILES | Potency | activity change, negative = displacement |
| --- | --- | --- |
| Cc1ccc(-c2ccnc3nc(Sc4ncc(C(F)(F)F)cc4Cl)nn23)cc1 | inconclusive: 4.47 µM [inhibitor, full curve] | – |
| O=C1C2C3CC(C(Br)C3Br)C2C(=O)N1c1ccccn1 (stereo not drawn) | inconclusive: 31.6 µM [inhibitor, partial curve] | – |
| COc1ccc(CN2CCC(C(=O)Nc3ccc(Oc4cccnc4)cc3)CC2)cc1 | inconclusive: 28.2 µM [inhibitor, partial curve] | – |
| CCOC(=O)NCCc1c(C)nc2c(c(C)nn2C(C)(C)C)c1C | inconclusive: 28.2 µM [inhibitor, single point] | – |
| O=C(COc1ccccc1C(=O)O)NC1CCCc2ccccc21 (stereo not drawn) | inconclusive: 22.4 µM [inhibitor, partial curve] | – |
| CCOC(=O)C1CCN(C(=O)COc2cc(C)c(Br)c(C)c2)CC1 | inconclusive: 31.6 µM [inhibitor, partial curve] | – |
| O=C(CSc1nnc(-c2ccc(Br)cc2)n1-c1ccccc1)c1ccccc1 | inconclusive: 12.6 µM [inhibitor, full curve, poor fit] | – |
| CNC(=O)CSc1nnc(NC(=O)Nc2ccccc2)s1 | inactive | – |
| COCC(=O)n1nc(-c2ccc(C)cc2)nc1NCc1ccc(F)cc1 | inactive | – |
| C=CSc1sc(Cl)c(N(C)C)c1[N+](=O)[O-] | inconclusive: 35.5 µM [inhibitor, partial curve] | – |
| COc1ccc(/C=C/C(=O)OCC(=O)Nc2cc(S(=O)(=O)N(C)C)ccc2Cl)cc1 | inconclusive: 15.8 µM [inhibitor, partial curve] | – |
| Cc1ccccc1NS(=O)(=O)c1ccc(Cl)cc1 | inconclusive: 17.8 µM [inhibitor, partial curve] | – |
| Cc1cccc(N(Cc2cc3ccccc3[nH]c2=O)C(=O)c2cccs2)c1 | inconclusive: 15.8 µM [inhibitor, partial curve] | – |
| O=C(CSc1nc2ccccc2c(=O)n1CCC(=O)N1CCN(c2ccccc2)CC1)NCC1CCCO1 (stereo not drawn) | inactive | – |
| O=C1CC(c2ccccc2)CN1C(=O)c1ccccc1 (stereo not drawn) | inconclusive: 15.8 µM [inhibitor, partial curve] | – |
| O=c1[nH]cnc2scc(-c3ccsc3)c12 | inconclusive: 28.2 µM [inhibitor, partial curve] | – |
| CC(=O)c1cccc(NC(=O)CSc2ccc(-c3sc(C)nc3C)nn2)c1 | inconclusive: 22.4 µM [inhibitor, partial curve] | – |
| CCC1CCCCN1C(=O)CSc1nnc(-c2ccc(Cl)s2)o1 (stereo not drawn) | inconclusive: 22.4 µM [inhibitor, partial curve] | – |
| C=C1C=CS(=O)(=O)N(C(C)C(=O)OC)C1 (stereo not drawn) | inactive | – |
| CN(C)CCCN(C(=O)c1ccc(S(=O)(=O)N(C)Cc2ccccc2)cc1)c1nc2cc3c(cc2s1)OCO3 | inconclusive: 20 µM [inhibitor, partial curve] | – |
| Cc1cc(Br)ccc1SCC(=O)N1CCN(S(=O)(=O)c2ccccc2)CC1 | inconclusive: 15.8 µM [inhibitor, partial curve] | – |
